From the supplement of paper PMC3334620
In all, about 33,000 sequences were measured (“E-score (-0.5 to 0.5)”: median about -0.012, highest 2% from about 0.27 on). The list shows a part of the results.

The sequences below were run against T1, Vhr1 (UniProt P40522) (assay: PBM E-score (8-mer binding enrichment) (E-score (-0.5 to 0.5)); higher = stronger / more preferred TF binding; most listed sequences are background and not binding sites). Conditions: protein concentration: 200 nM; construct: GST-full length.
T1 sequence: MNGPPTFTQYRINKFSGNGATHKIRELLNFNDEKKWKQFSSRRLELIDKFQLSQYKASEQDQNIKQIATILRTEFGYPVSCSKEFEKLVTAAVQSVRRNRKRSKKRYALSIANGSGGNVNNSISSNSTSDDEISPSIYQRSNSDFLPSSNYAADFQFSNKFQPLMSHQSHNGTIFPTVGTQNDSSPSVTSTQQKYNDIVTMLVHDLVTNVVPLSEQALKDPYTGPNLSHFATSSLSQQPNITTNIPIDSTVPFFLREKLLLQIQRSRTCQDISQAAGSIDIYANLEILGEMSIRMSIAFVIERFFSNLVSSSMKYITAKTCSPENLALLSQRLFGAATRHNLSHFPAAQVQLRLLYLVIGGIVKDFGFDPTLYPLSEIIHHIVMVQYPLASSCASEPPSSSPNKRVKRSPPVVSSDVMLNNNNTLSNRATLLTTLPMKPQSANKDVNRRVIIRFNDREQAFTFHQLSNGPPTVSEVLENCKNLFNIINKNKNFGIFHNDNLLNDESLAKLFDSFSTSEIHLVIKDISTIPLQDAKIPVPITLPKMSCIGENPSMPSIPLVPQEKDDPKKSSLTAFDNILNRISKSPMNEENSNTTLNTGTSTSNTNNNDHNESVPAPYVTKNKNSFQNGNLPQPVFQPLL
Outline: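 Universal all-10-mer Agilent arrays, fresh or stripped once, were converted to double-stranded form by primer extension. GST-tagged yeast transcription factors from PURExpress in vitro transcription/translation, full-length or DNA-binding domain only, were applied at about 100-200 nM and detected with fluorescent anti-GST. After masliner normalisation, the Universal PBM Analysis Suite scored each ungapped eight-base word together with its reverse complement by E-score.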
AAAGACTC was tested, and the “PBM E-score” value was 0.0621.
For ATATTAGA, the “PBM E-score” value was -0.139.
With GTGTTAAA the “PBM E-score” value was -0.204.
With CCATGCCG the “PBM E-score” value was 0.0436.
GGCAGGTA was tested, and the “PBM E-score” value was -0.122.
CCAAGGTA was tested, and the “PBM E-score” value was 0.0816.
For ACCGGCTA, the “PBM E-score” value was -0.036.
GGAAGCGA was tested, and the “PBM E-score” value was -0.0821.
In the case of GCTTGACC, the “PBM E-score” value is reported as -0.13.
AAGGATAA was tested, and the “PBM E-score” value was -0.0506.
With AAAGGAGA the “PBM E-score” value was -0.0289.
With AGAAACGC the “PBM E-score” value was -0.0578.
ATGTCCGG was tested, and the “PBM E-score” value was -0.174.
In the case of GTCTTCCA, the “PBM E-score” value is reported as -0.117.
ACATAATG was tested, and the “PBM E-score” value was 0.168.
For ATAATTAC, the “PBM E-score” value was -0.0317.
In the case of ACGATAAT, the “PBM E-score” value is reported as 0.0207.
In the case of ATCCGCAG, the “PBM E-score” value is reported as 0.128.
CGCTATAG was tested, and the “PBM E-score” value was -0.233.
With GCACGTAA the “PBM E-score” value was -0.134.
With GTAGTAAA the “PBM E-score” value was -0.0957.
For ACAACTAC, the “PBM E-score” value was 0.185.
For GTCTTCAC, the “PBM E-score” value was -0.058.
In the case of GGGGCCTA, the “PBM E-score” value is reported as -0.204.
With CTATCAAG the “PBM E-score” value was 0.0277.
For AGATATAC, the “PBM E-score” value was 0.0373.
With AATGGAGG the “PBM E-score” value was -0.0309.
With ACAGGAGG the “PBM E-score” value was -0.164.
For GCGACGGA, the “PBM E-score” value was -0.0218.
ATAGAGCC was tested, and the “PBM E-score” value was -0.122.
In the case of AAGGACAG, the “PBM E-score” value is reported as -0.0727.
With GTTAGGTA the “PBM E-score” value was 0.0774.
ATATCGTA was tested, and the “PBM E-score” value was 0.183.
In the case of CTGCGAAC, the “PBM E-score” value is reported as -0.0741.
For CCAAATCA, the “PBM E-score” value was 0.166.
With GGACGTAA the “PBM E-score” value was -0.241.
With GGGAACTA the “PBM E-score” value was -0.0154.
CACGGAGC was tested, and the “PBM E-score” value was 0.016.
For GCATACCA, the “PBM E-score” value was 0.0583.
In the case of ACCCCCGA, the “PBM E-score” value is reported as 0.00996.
ACCCATGA was tested, and the “PBM E-score” value was 0.287.
ACGGATGC was tested, and the “PBM E-score” value was -0.0748.
In the case of TGGATCAA, the “PBM E-score” value is reported as 0.0735.
With ATAGACCC the “PBM E-score” value was -0.0379.
In the case of CAGTCGAC, the “PBM E-score” value is reported as 0.197.
In the case of AGTCTGTA, the “PBM E-score” value is reported as -0.0759.
For GGCTCCAA, the “PBM E-score” value was -0.157.
With AGAGTGGC the “PBM E-score” value was -0.15.
GATGAAGA was tested, and the “PBM E-score” value was -0.106.
GAGCCCGC was tested, and the “PBM E-score” value was 0.157.
ATCGCATC was tested, and the “PBM E-score” value was 0.109.
With ATAACGCA the “PBM E-score” value was -0.0139.
GTAGGTAA was tested, and the “PBM E-score” value was -0.114.
With TAACCACA the “PBM E-score” value was 0.194.
For CATCGCTA, the “PBM E-score” value was 0.157.
For TGTAAACA, the “PBM E-score” value was 0.0594.
CCGGAAAG was tested, and the “PBM E-score” value was -0.27.
In the case of GGCTAACC, the “PBM E-score” value is reported as -0.118.
GCTCGTCA was tested, and the “PBM E-score” value was 0.0737.
With AAACTAAA the “PBM E-score” value was -0.0946.
In the case of ACAGCTAC, the “PBM E-score” value is reported as -0.0319.
CTAATGTA was tested, and the “PBM E-score” value was -0.0533.
In the case of GAAGAAAC, the “PBM E-score” value is reported as -0.129.
For CTCTGACC, the “PBM E-score” value was -0.0317.
CTTCTGTC was tested, and the “PBM E-score” value was -0.278.
In the case of ACATGTAC, the “PBM E-score” value is reported as 0.107.
CGCATTTC was tested, and the “PBM E-score” value was 0.0975.
CGGGAAAG was tested, and the “PBM E-score” value was -0.0324.
ACGGTCAT was tested, and the “PBM E-score” value was 0.156.
GAAGTGTA was tested, and the “PBM E-score” value was -0.125.
With CCTCCGTC the “PBM E-score” value was -0.111.
For AATACTAC, the “PBM E-score” value was 0.0494.
For AGTAGACG, the “PBM E-score” value was 0.0506.
In the case of ACGCTATC, the “PBM E-score” value is reported as -0.104.
With CGTGTAAG the “PBM E-score” value was 0.133.
For TATGACCA, the “PBM E-score” value was 0.0633.
For GATTCCAA, the “PBM E-score” value was 0.208.
In the case of GCGTGCCA, the “PBM E-score” value is reported as -0.286.
ATACTATC was tested, and the “PBM E-score” value was 0.128.
For CCCAGGAC, the “PBM E-score” value was -0.00921.
In the case of GTGCGGTA, the “PBM E-score” value is reported as 0.121.
For CCAGCAGG, the “PBM E-score” value was 0.00639.
With CTTACTCA the “PBM E-score” value was 0.176.
In the case of AGCTCAAT, the “PBM E-score” value is reported as -0.0968.
AGTAGAGC was tested, and the “PBM E-score” value was -0.121.
With AGGTTGAG the “PBM E-score” value was -0.0428.
